According to paper PMC3243670:
No constants are given. Whether binding was seen depends on the method and setting. Binding seen in cells or lysates may run through a third protein. Some entries that bind do so weakly or less than the wild type. Where a sequence is shown, tags or fusion partners need not be part of it.

Chains of the proteins cited; added tags and fusions are not shown.
UniProt Q12834: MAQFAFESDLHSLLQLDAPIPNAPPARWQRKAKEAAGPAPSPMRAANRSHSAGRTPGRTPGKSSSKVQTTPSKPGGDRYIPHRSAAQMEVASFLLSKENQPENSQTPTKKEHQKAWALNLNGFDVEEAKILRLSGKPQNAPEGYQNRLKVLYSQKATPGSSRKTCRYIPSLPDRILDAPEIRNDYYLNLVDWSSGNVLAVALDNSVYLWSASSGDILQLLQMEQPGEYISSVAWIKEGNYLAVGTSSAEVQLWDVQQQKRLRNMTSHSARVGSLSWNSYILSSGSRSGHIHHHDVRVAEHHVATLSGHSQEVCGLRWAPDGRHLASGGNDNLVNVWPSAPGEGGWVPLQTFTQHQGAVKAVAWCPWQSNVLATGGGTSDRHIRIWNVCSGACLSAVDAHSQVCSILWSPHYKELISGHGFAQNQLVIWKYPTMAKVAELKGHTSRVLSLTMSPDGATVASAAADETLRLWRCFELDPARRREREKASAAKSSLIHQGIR
UniProt Q9UM11: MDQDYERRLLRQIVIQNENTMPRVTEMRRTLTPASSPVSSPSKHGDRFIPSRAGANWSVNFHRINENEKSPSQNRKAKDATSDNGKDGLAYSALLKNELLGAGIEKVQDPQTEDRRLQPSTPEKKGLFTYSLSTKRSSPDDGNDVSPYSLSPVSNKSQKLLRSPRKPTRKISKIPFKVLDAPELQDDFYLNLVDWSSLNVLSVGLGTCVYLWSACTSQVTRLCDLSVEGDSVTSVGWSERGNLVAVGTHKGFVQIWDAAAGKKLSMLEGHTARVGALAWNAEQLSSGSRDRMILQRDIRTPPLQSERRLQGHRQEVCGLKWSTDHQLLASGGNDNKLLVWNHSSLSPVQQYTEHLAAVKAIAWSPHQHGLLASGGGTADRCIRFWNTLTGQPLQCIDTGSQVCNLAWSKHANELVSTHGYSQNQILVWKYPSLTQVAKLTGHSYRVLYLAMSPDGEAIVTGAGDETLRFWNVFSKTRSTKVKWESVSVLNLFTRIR
UniProt P63208: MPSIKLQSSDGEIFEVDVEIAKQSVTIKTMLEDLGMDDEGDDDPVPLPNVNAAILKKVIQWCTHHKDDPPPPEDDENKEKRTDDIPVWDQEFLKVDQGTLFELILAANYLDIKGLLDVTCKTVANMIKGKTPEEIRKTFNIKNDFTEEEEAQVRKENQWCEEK

B1: Myc-NIPA (protein, UniProt Q86WB0 1-502)
chain: MAAPCEGQAFAVGVEKNWGAVVRSPEGTPQKIRQLIDEGIAPEEGGVDAKDTSATSQSVNGSPQAEQPSLESTSKEAFFSRVETFSSLKWAGKPFELSPLVCAKYGWVTVECDMLKCSSCQAFLCASLQPAFDFDRYKQRCAELKKALCTAHEKFCFWPDSPSPDRFGMLPLDEPAILVSEFLDRFQSLCHLDLQLPSLRPEDLKTMCLTEDKISLLLHLLEDELDHRTDERKTTIKLGSDIQVHVTACILSVCGWACSSSLESMQLSLITCSQCMRKVGLWGFQQIESSMTDLDASFGLTSSPIPGLEGRPERLPLVPESPRRMMTRSQDATFSPGSEQAEKSPGPIVSRTRSWDSSSPVDRPEPEAASPTTRTRPVTRSMGTGDTPGLEVPSSPLRKAKRARLCSSSSSDTSSRSFFDPTSQHRDWCPWVNITLGKESRENGGTEPDASAPAEPGWKAVLTILLAHKQSSQPAETDSMSLSEKSRKVFRIFRQWESLCSC

What was measured:
[1] = target: T1, Flag-NIPA (Nuclear Interaction Partner of Alk kinase), wild type (human) (UniProt Q86WB0); assay: co-IP; Flag-NIPA co-expressed with HA-Cdh1 or HA-Cdc20 in HEK293T cells, MG132 added 6 h before collection; extracts immunoprecipitated with an antibody against Flag
T1 sequence: B1 chain

[2] = target: T1, Flag-NIPA (Nuclear Interaction Partner of Alk kinase), wild type (human); assay: co-IP; HA-Cdh1 co-expressed with Flag-NIPA, with or without overexpressed Skp1, in HEK293T cells; extracts immunoprecipitated with an antibody against Flag
GST-NIPA wt (human) = target: T2, GST-NIPA wt (human) (UniProt Q86WB0); assay: pull-down; 30 ul in vitro translated 35S-labeled Cdh1 incubated with glutathione beads with bound GST-NIPA; 10 mM Tris/HCl pH 7.5, 100 mM NaCl, 5 mM EDTA, 0.1% Triton X-100, 1 h at 4°C; SDS-PAGE and autoradiography; only the target purified
T2 sequence: B1 chain

HA-Cdc20 = HA-Cdc20 (UniProt Q12834); assay: co-IP; Myc-NIPA co-expressed with HA-Cdh1 or HA-Cdc20 in HEK293T cells, MG132 added 6 h before collection; extracts immunoprecipitated with an antibody against HA-tag
HA-Cdh1 = HA-Cdh1 (UniProt Q9UM11); assay: as above

| Molecule | binding [1] | binding [2] | also measured |
| --- | --- | --- | --- |
| HA-Cdc20 (from UniProt Q12834 1-499) | no binding | – | – |
| HA-Cdh1 (from UniProt Q9UM11 1-496) | binds | binds | – |
| Skp1 (from UniProt P63208 1-163) | – | binds | – |
| in vitro translated, 35S-labeled Cdh1 (from UniProt Q9UM11 1-496) | – | – | binding (GST-NIPA wt (human)): binds |
| B1 | – | – | binding (HA-Cdc20): no binding; binding (HA-Cdh1): binds |
